Results published in patent publication US20230139456A1 (CUE BIOPHARMA, published 2023).

Experiments:
RIIA = biological target: T1, RIIA (UniProt P12318 36-218, limits assumed); assay: BLI (Octet HTX); His-tagged FcRIIA loaded on anti-penta-His (HIS1K) biosensor, TMMP at 300, 100 and 33.3 nM; noisy traces, response at most about 0.035 nm [Cont.]
T1 construct: also called FcRIIA; His-tagged receptor; not shown: His tag
T1 sequence (looked up): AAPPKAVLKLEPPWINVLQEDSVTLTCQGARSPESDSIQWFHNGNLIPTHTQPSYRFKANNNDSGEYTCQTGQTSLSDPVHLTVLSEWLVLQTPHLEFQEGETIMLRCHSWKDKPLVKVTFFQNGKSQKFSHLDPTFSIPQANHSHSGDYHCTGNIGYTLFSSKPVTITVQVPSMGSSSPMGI

IIB = biological target: T2, IIB (UniProt P31994 46-217, limits assumed); assay: BLI (Octet HTX); His-tagged FcRIIB loaded on anti-penta-His (HIS1K) biosensor, TMMP at 300 and 100 nM; noisy traces, response at most about 0.02 nm, no fall in the dissociation step [Cont.]
T2 construct: also called FcRIIB; His-tagged receptor; not shown: His tag
T2 sequence (looked up): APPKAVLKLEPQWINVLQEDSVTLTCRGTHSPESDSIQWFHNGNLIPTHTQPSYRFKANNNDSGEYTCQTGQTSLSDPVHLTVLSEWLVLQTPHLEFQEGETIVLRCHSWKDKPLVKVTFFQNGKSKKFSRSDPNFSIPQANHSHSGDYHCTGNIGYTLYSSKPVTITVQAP

Kd (RIIA): 156 nM | Kd (IIB): 5720 nM
B1: “3425+3529” TMPP (T-cell modulatory multimeric polypeptide comprising polypeptide 3425 and polypeptide 3529) (Fc fusion)
MHC heavy: GSHSMRYFSTSVSRPGRGEPRFIAVGYVDDTQFVRFDSDAASQRMEPRAPWIEQEGPEYWDEETGKVKAHSQTDRENLRIALRCYNQSEAGSHTLQMMFGCDVGSDGRFLRGYHQYAYDGKDYIALKEDLRSWTAADMAAQITKRKWEAAHVAEQQRAYLEGTCVDGLRRYLENGKETLQRTDPPKTHMTHHPISDHEATLRCWALGFYPAEITLTWQRDGEDQTQDTELVETRPCGDGTFQKWAAVVVPSGEEQRYTCHVQHEGLPKPLTLRWEAAAGG[skipping human IgG1 Fc with changes]GGGGSGGGGSGGGGS[skipping about 150 residues]GGGGSGGGGSGGGGSGGGGS[skipping about 150 residues]
b2m: NYMNLGATLGCGGSGGGGSGGGGS[skipping about 100 residues]
